Data published in article PMC4336329 (PLoS ONE, 2015).
About 2,200 (0.71%) of roughly 310,000 compounds showed an effect of 50% or more. Effects have a minus sign here. The list shows a part of the results.

What follows are compounds tested against human ether-à-go-go-related gene (hERG) potassium channel (human, UniProt Q12809) (assay: primary screen, population patch clamp on CHO cells stably expressing hERG).
Sequence of human ether-à-go-go-related gene (hERG) potassium channel (Q12809 whole entry, looked up): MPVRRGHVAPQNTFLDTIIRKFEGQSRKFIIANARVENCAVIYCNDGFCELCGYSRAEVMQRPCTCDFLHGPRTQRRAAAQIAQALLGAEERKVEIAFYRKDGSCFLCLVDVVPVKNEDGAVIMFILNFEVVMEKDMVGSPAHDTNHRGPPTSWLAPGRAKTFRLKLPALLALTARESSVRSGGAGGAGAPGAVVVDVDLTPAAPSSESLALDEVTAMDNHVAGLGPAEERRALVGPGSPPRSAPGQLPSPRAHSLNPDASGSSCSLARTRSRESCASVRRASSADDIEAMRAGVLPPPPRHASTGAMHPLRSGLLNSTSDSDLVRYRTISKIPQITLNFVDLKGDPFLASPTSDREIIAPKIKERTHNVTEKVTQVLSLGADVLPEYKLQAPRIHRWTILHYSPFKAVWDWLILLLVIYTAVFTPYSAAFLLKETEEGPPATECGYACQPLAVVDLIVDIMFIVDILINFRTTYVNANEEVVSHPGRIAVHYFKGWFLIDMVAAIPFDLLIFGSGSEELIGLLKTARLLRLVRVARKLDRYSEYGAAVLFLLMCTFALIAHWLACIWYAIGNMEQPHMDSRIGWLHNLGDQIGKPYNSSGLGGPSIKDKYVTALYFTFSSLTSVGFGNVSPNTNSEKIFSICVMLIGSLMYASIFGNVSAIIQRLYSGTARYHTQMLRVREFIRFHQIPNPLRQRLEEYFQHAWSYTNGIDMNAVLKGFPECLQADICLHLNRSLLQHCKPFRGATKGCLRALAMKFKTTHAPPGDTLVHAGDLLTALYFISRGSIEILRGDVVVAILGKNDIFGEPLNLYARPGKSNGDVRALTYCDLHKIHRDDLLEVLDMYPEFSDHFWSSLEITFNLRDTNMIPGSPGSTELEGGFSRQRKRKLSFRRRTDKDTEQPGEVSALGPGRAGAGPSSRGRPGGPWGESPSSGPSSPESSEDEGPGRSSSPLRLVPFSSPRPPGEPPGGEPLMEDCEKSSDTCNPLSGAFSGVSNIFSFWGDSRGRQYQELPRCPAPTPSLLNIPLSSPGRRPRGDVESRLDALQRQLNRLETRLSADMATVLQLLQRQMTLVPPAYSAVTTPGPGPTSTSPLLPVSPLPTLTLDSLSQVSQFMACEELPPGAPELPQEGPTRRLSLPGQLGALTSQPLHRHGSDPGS

**Q.** With `O=S(=O)(c1ccc(Cl)cc1)N1CCCCCC1` as the compound, how does the “hERG current change (%, negative = inhibition) at 1uM” value read?
**A.** The value was 10.8%.

**Q.** How did the “hERG current change (%, negative = inhibition) at 1uM” value turn out when `O=C(N/N=C/c1cccnc1)c1cccc(Cl)c1` was run?
**A.** Its value is 11.7%.

**Q.** How did the “hERG current change (%, negative = inhibition) at 1uM” value turn out when `COc1ccc(N(C(=O)c2cc3ccccc3oc2=O)C2C=CS(=O)(=O)C2)c(OC)c1` (stereo not drawn) was run?
**A.** The value was 5.01%.

**Q.** With `COc1ccc(C2CC(=O)Oc3cc(O)cc(O)c32)cc1` (stereo not drawn) as the compound, how does the “hERG current change (%, negative = inhibition) at 1uM” value read?
**A.** The value was 7.9%.

**Q.** How did the “hERG current change (%, negative = inhibition) at 1uM” value turn out when `COc1ccc(-c2nc(CCNC(=O)c3ccc(Br)o3)cs2)cc1` was run?
**A.** Its value is 13.6%.

**Q.** With `Cc1ccc(-n2cc(C(C)(C)C)[nH]c2=S)cc1` as the compound, how does the “hERG current change (%, negative = inhibition) at 1uM” value read?
**A.** The value was 7.74%.

**Q.** `Cc1cc(C)c2cc(C(=O)N3CCC(C(=O)c4ccc(F)cc4)CC3)[nH]c2c1` was tested. Which “hERG current change (%, negative = inhibition) at 1uM” value did it give?
**A.** The value was 8.43%.

**Q.** `CCOc1ccc(S(=O)(=O)Nc2cc(Sc3ncn[nH]3)c3oc(=O)sc3c2)cc1` was tested. Which “hERG current change (%, negative = inhibition) at 1uM” value did it give?
**A.** Its value is 3.06%.

**Q.** Which “hERG current change (%, negative = inhibition) at 1uM” value does the source give for `CN1CCc2c(sc(/N=C/c3cc(Cl)ccc3O)c2C#N)C1` here?
**A.** The value was 7.61%.

**Q.** With `O=C(COC(=O)/C=C/c1ccc2c(c1)OCO2)NCc1ccccc1` as the compound, how does the “hERG current change (%, negative = inhibition) at 1uM” value read?
**A.** The value was 8.25%.

**Q.** `Cc1cccc(CC(=O)NCCN2CCCCC2)c1` was tested. Which “hERG current change (%, negative = inhibition) at 1uM” value did it give?
**A.** Its value is 9.95%.

**Q.** `CCCCOc1ccc(C(=O)N=c2sccn2C)cc1OC` was tested. Which “hERG current change (%, negative = inhibition) at 1uM” value did it give?
**A.** The value was 12.4%.

**Q.** How did the “hERG current change (%, negative = inhibition) at 1uM” value turn out when `COc1cccc(CNC(=O)CCC2CCCN(C(=O)Cc3ccccc3F)C2)c1` (stereo not drawn) was run?
**A.** The value was 7.89%.

**Q.** `CN(Cc1nc(-c2ccncc2)no1)S(=O)(=O)c1ccccc1` was tested. Which “hERG current change (%, negative = inhibition) at 1uM” value did it give?
**A.** The value was 3.79%.

**Q.** With `Cc1nn(-c2ccccc2)c(C)c1C(=O)OCC(=O)Nc1ccccc1C(F)(F)F` as the compound, how does the “hERG current change (%, negative = inhibition) at 1uM” value read?
**A.** The value was 2.4%.

**Q.** How did the “hERG current change (%, negative = inhibition) at 1uM” value turn out when `Cc1ccc(C(=O)CCC(=O)NCc2ccccc2)cc1` was run?
**A.** Its value is 6.11%.

**Q.** With `COc1ccc(C2/C(=C(/O)c3ccc(Br)cc3)C(=O)C(=O)N2C)cc1` (stereo not drawn) as the compound, how does the “hERG current change (%, negative = inhibition) at 1uM” value read?
**A.** The value was 6.5%.

**Q.** For `COc1cc(C(=O)Oc2ccc(Br)cc2C(=S)N2CCOCC2)cc(OC)c1OC`, which “hERG current change (%, negative = inhibition) at 1uM” value is on record?
**A.** The value was 3.16%.

**Q.** `COc1cc(C2C(C(N)=O)=C(C)Nc3nc(CCCO)nn32)cc(OC)c1OC` (stereo not drawn) was tested. Which “hERG current change (%, negative = inhibition) at 1uM” value did it give?
**A.** The value was 7.86%.

**Q.** `CCN1CCN(c2ccc(NC(=O)C(C)C)cc2Cl)CC1` was tested. Which “hERG current change (%, negative = inhibition) at 1uM” value did it give?
**A.** Its value is 0.089%.

**Q.** Which “hERG current change (%, negative = inhibition) at 1uM” value does the source give for `CCn1ccnc1C(O)c1ccccc1OC` (stereo not drawn) here?
**A.** The value was 6.85%.

**Q.** How did the “hERG current change (%, negative = inhibition) at 1uM” value turn out when `CC(C)C(O)P(=O)(OCc1ccccc1)c1ccc(N(C)C)cc1` (stereo not drawn) was run?
**A.** Its value is 0.25%.

**Q.** With `COc1ccc(CCN(C)CC(=O)Nc2ccc(F)c(Cl)c2)cc1OC` as the compound, how does the “hERG current change (%, negative = inhibition) at 1uM” value read?
**A.** The value was 4.01%.

**Q.** `CC(C)N1C(=O)S/C(=C/c2ccc3c(c2)n(C)c(=O)n3C)C1=O` was tested. Which “hERG current change (%, negative = inhibition) at 1uM” value did it give?
**A.** Its value is -5.59%.

**Q.** For `CCN(CC(=O)Nc1cccc(OC)c1)C(=O)c1cccc(S(=O)(=O)N2CCc3ccccc32)c1`, which “hERG current change (%, negative = inhibition) at 1uM” value is on record?
**A.** The value was 13.1%.

**Q.** Which “hERG current change (%, negative = inhibition) at 1uM” value does the source give for `O=C(NCCOc1ccc(Cl)cc1)c1ccc2c(c1)OCCO2` here?
**A.** The value was 8.3%.

**Q.** How did the “hERG current change (%, negative = inhibition) at 1uM” value turn out when `CCCCC(=O)O[C@]1(C(=O)CO)CC[C@H]2[C@@H]3CCC4=CC(=O)CC[C@]4(C)[C@H]3[C@@H](O)C[C@@]21C` was run?
**A.** The value was 11.4%.

**Q.** With `Cc1ccc(N(CC(=O)NC2CC2)S(=O)(=O)c2ccccc2)c(C)c1` as the compound, how does the “hERG current change (%, negative = inhibition) at 1uM” value read?
**A.** Its value is 9.45%.

**Q.** For `CC(Cc1ccccc1)N/C=C1\CC(=O)NC1=O` (stereo not drawn), which “hERG current change (%, negative = inhibition) at 1uM” value is on record?
**A.** The value was 0.821%.

**Q.** Which “hERG current change (%, negative = inhibition) at 1uM” value does the source give for `N#CCc1cnc2ccccc2n1` here?
**A.** The value was 7.74%.

**Q.** `Cc1ccc(NC(=O)CCOc2ccccc2)c(C)c1` was tested. Which “hERG current change (%, negative = inhibition) at 1uM” value did it give?
**A.** The value was 16.1%.

**Q.** With `COc1ccc(CN2CCN(Cc3ccco3)CC2)cc1OC.O=C(O)C(=O)O` as the compound, how does the “hERG current change (%, negative = inhibition) at 1uM” value read?
**A.** Its value is 8.06%.

**Q.** `CCOC(=O)c1c[nH]n(-c2ccccc2)c1=O` was tested. Which “hERG current change (%, negative = inhibition) at 1uM” value did it give?
**A.** Its value is 15.1%.

**Q.** Which “hERG current change (%, negative = inhibition) at 1uM” value does the source give for `CCn1cc(NC(=O)CCl)c(C)n1` here?
**A.** Its value is 6.53%.

**Q.** How did the “hERG current change (%, negative = inhibition) at 1uM” value turn out when `COc1ccccc1NC(=O)Cn1nnc(-c2ccccc2NC(=O)c2ccco2)n1` was run?
**A.** The value was 14.7%.

**Q.** `Cc1ccc(S(=O)(=O)N2CCC(=O)N(CCOC(=O)Nc3ccccc3C)CC2)cc1` was tested. Which “hERG current change (%, negative = inhibition) at 1uM” value did it give?
**A.** Its value is 10.5%.

**Q.** Which “hERG current change (%, negative = inhibition) at 1uM” value does the source give for `Cc1cccc(OCCCC(=O)O)c1` here?
**A.** Its value is 9.15%.

**Q.** For `CCCC(=O)NC(c1ccc(N(C)C)cc1)c1c(O)ccc2ccccc12` (stereo not drawn), which “hERG current change (%, negative = inhibition) at 1uM” value is on record?
**A.** Its value is 9.53%.

**Q.** For `CN(Cc1nc(-c2cccs2)no1)CC(O)c1ccccc1` (stereo not drawn), which “hERG current change (%, negative = inhibition) at 1uM” value is on record?
**A.** Its value is -0.94%.

**Q.** How did the “hERG current change (%, negative = inhibition) at 1uM” value turn out when `Cc1ccc(-n2c(C)cc(/C=N/NC(=O)CC3(C)OCCO3)c2C)c(C)c1` was run?
**A.** The value was 14%.

**Q.** For `CC1CCCCN1c1ccc(N)cc1C(N)=O` (stereo not drawn), which “hERG current change (%, negative = inhibition) at 1uM” value is on record?
**A.** Its value is 4.3%.

**Q.** Which “hERG current change (%, negative = inhibition) at 1uM” value does the source give for `O=C(c1ccc(Cl)c(S(=O)(=O)N2CCCCCC2)c1)N1CCCC1` here?
**A.** Its value is -9.42%.

**Q.** For `Cc1ccc(S(=O)(=O)NCc2ccccc2C)cc1`, which “hERG current change (%, negative = inhibition) at 1uM” value is on record?
**A.** The value was 14.7%.

**Q.** How did the “hERG current change (%, negative = inhibition) at 1uM” value turn out when `CC(NC(=O)c1cc(COc2ccc3ncccc3c2)on1)c1ccc(F)cc1` (stereo not drawn) was run?
**A.** The value was 13.5%.

**Q.** Which “hERG current change (%, negative = inhibition) at 1uM” value does the source give for `CCC(=NCc1cccnc1)c1c(O)n(-c2ccc(Cl)cc2)c(=O)[nH]c1=O` here?
**A.** Its value is 2.75%.
